Out of some 48,000 compounds screened, about 450 (0.94%) were called active. Not shown: some 19% with an inconclusive outcome. Calls come from the whole dose curve; as a rule, active = well fitted inhibition curve with a large enough effect; inconclusive = small, poorly fitted or top-dose-only effect; inactive = no such curve, though single readings can be large or run the other way. This is one part of the list.
Potency is the fitted concentration of half-maximal effect.

The assay in a line: Primary qHTS for Identification of Small Molecule Inhibitors of Huntingtin Promoter Activity. Note: nearly all actives have a fitted effect of over 50% in size. The settings on record: HEK293 HTT promoter firefly luciferase reporter (activity 0% = vehicle and -100% = no light), 24 h; series mostly up to 57.5 µM; activity change, negative = inhibition: at the top concentration. An outline of the steps: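 HEK293 Fluc reporter, 2,500 cells/well, 24 h pre-culture; cpds up to 57.5 uM final, 24 h 37 degrees C; Dual-Glo, 10 min RT; normalized vehicle = 0%, zero RLU = -100%.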
In general terms: qHTS replaces the single test concentration by a dilution series.
As to `CCc1ccccc1NC(=O)CSc1nc(-c2ccccc2OC)nc2c1Cc1c(CO)cnc(C)c1O2`, the “activity change, negative = inhibition” value was inactive: -17.9%.
For `CC(=O)c1cc(C(=O)Nc2cc(C)cc(C)c2)c2ccccn12`, the “activity change, negative = inhibition” value is inactive: 19.7%.
For the molecule `COC(=O)C(CCSC)NC(=O)c1cc2c(n(-c3ccc(C)cc3)c1=O)CC(C)(C)CC2=O` (stereo not given), the “activity change, negative = inhibition” value was inactive: -17.2%.
`Cc1ccc2c(c1)cc1c(=O)n(CC(=O)NC3CCCCC3)nc(C)n12`: the “activity change, negative = inhibition” value is inactive: -2.03%.
Regarding `CCOC(=O)CC1c2cc(OCC)c(OCC)cc2CCN1C(=O)Nc1cccc(Cl)c1` (stereo not given), the “activity change, negative = inhibition” value is inactive: -20.9%.
Turning to `Cc1cccn2c(=O)c3cc(C(=O)NCc4ccccc4)c(=N)n(CCOCCO)c3nc12`, the “activity change, negative = inhibition” value is inactive: -2.37%.
Consider `NC(=O)C1(N2CCCCC2)CCN(CCCC(=O)c2ccc(F)cc2)CC1`, for which the “activity change, negative = inhibition” value is inactive: 3.89%.
For `O=C(NCc1ccccc1)c1ccc2c(c1)CCN2S(=O)(=O)c1ccccc1`, the “activity change, negative = inhibition” value is inactive: -35.4%.
For the molecule `CCC(=O)Nc1ccc(-c2nnc3c4ccccc4c(C)nn23)cc1`, the “activity change, negative = inhibition” value is inactive: -1.32%.
Same read-out and setting: to `Cc1ccc(NC(=O)CSc2nc(=O)n(CCCN(C)C)c3c2CCC3)cc1F` belongs inactive: -7.37%.
As to `CCCc1ccc(S(=O)(=O)N2CCC(Oc3ccc(-n4cnnn4)cc3)CC2)cc1`, the “activity change, negative = inhibition” value is inactive: -33.4%.
Still for that read-out and setting: for `CNC1(C)C2CCC(C2)C1(C)C` (stereo not given) the value was inactive: -6.81%; for `CNC(=O)c1ccc(Nc2nnc(-c3ccc(C)c(S(=O)(=O)N(C)C)c3)c3ccccc23)cc1`, inactive: -18.8%; for `CCOC(=O)c1[nH]c(C)c(CCC(=O)NCc2ccccc2Cl)c1C`, inactive: -18.7%.
As to `COc1ccc(CCNC(=O)CCCn2c(=O)c3ccccc3n(Cc3c(C)cc(C)cc3C)c2=O)cc1OC`, the “activity change, negative = inhibition” value is inactive: 2.13%.
With `CCC(=O)N1c2ccc(S(=O)(=O)N3CCC(C)CC3)cc2CC1C` (stereo not given), the “activity change, negative = inhibition” value is inactive: -30.6%.
As to `Cc1ccc(C)c(NC(=O)Cn2cc(C(=O)c3ccc(Cl)cc3)c(=O)c3ccc(C)nc32)c1`, the “activity change, negative = inhibition” value is inactive: -8.48%.
In the case of `O=C(CC1C(=O)OCCN1Cc1ccccc1)Nc1ccc(F)cc1` (stereo not given), the activity change, negative = inhibition was inactive: -21.7% [at 11.5 µM].
For `CC1CCN(S(=O)(=O)c2ccc(C(=O)Nc3sc4c(c3C(N)=O)CC(C)(C)NC4(C)C)cc2)CC1`, the “activity change, negative = inhibition” value was inactive: -16.3%.
On the same count and under the same terms, for `Cc1cccc(C)c1-n1ncc(C(=O)N2CCN(c3ccccn3)CC2)c1C1CCN(C(=O)OC(C)(C)C)CC1` the value was inactive: -31.1%.
For `N#Cc1ccc(CSc2nc3c(c(=O)[nH]2)CCC3)cc1`, the “activity change, negative = inhibition” value was inactive: -10%.
On the same count and under the same terms, for `Cc1cccc(-c2nc3c4ccccc4nc(NCc4ccc(Cl)cc4)n3n2)c1` the value was inactive: 7.26%; for `Cc1c(Cn2c(C)nc3c(C(=O)O)cc(N4CCOCC4)cc32)cccc1C(F)(F)F`, inactive: -14.2%; for `COc1ccc(-c2cc(C(=O)NCc3ccc(F)cc3)c3c(-c4ccc(F)cc4)[nH]nc3n2)cc1OC`, inactive: -29.6%.
On to `CCc1ccc2oc(-c3cc(NC(=O)C(C)C)cc(C)c3O)nc2c1`, for which the “activity change, negative = inhibition” value is inactive: -5.61%.
On the same count and under the same terms, for `CC(C)Cn1c(=O)c2sccc2n2c(CCCC(=O)NCc3ccccc3Cl)nnc12` the value was inactive: -12.9%.
For `COc1cccc(CNC(=O)C2CCN(S(=O)(=O)c3cn(C)cn3)CC2)c1`, the “activity change, negative = inhibition” value was inactive: -15.5%.
Turning to `CC(=O)N1c2ccc(S(=O)(=O)N3CCCCCC3)cc2CC1C(=O)NCc1ccc(Cl)cc1` (stereo not given), the “activity change, negative = inhibition” value is inactive: -17.5%.
Regarding `O=C(Cn1cc(SCc2ccc(C(F)(F)F)cc2)c2ccccc21)N1CCCC1`, the “activity change, negative = inhibition” value was inactive: -14.9%.
On to `CCCOc1ccc(-c2nonc2NC(=O)c2oc3ccc(C)cc3c2C)cc1OCCC`, for which the “activity change, negative = inhibition” value is inactive: -13.2%.
For the molecule `CCOC(=O)N1CCC(NC(=O)c2cnn(-c3cccc(Cl)c3C)c2C2CCN(C(=O)OC(C)(C)C)CC2)CC1`, the “activity change, negative = inhibition” value is inactive: 6.95%.
On to `CN1CCN(c2nc3c(S(=O)(=O)c4ccc(Br)cc4)nnn3c3ccsc23)CC1`, for which the “activity change, negative = inhibition” value is inactive: 4.92%.
On to `Oc1ccc(Cl)cc1C1=Nc2ccccc2N=C(c2cccc(Br)c2)C1`, for which the “activity change, negative = inhibition” value was inactive: 0.0657%.
For `COc1cccc(CN2CCc3nc(N4CCN(c5ncccn5)CC4)ncc3C2)c1`, the Potency is active: 25.1 µM.
Take `COc1ccc(OC)c(NC(=O)c2cc(CN3CCCC3)on2)c1`: the “activity change, negative = inhibition” value was inactive: -3.06%.
Same read-out and setting: for `CC(=O)Nc1ccc(NC(=O)CCNS(=O)(=O)c2cccc3nsnc23)cc1` the value was inactive: -6.85%; for `CCC(C)(CN(C)C)OC(=O)c1ccccc1` (stereo not given), inactive: 8.24%; for `CCc1ccc2oc(-c3cccc(NC(=O)c4ccc(N5CCC(C)CC5)c([N+](=O)[O-])c4)c3)nc2c1`, inactive: -9.93%.
Same read-out and setting: to `COc1cccc(NC(=O)Cn2cc(S(=O)(=O)N3CCCC3)c(S(=O)(=O)N3CCCC3)c2)c1` belongs inactive: -14.3% [at 11.5 µM].
Same read-out and setting: for `Cc1ccccc1CNC(=O)Cn1ncn2nc(-c3cccs3)cc2c1=O` the value was inactive: -5.86%.
Turning to `Cc1cccc(CSc2cn(CC(=O)N3CCCC3)c3ccccc23)c1`, the “activity change, negative = inhibition” value was inactive: 37.4%.
Turning to `CCC(Oc1ccccc1)C(=O)Nc1ccc2oc(-c3ccc(OC)cc3)nc2c1` (stereo not given), the “activity change, negative = inhibition” value is inactive: 14.1%.
Take `O=C(COc1ccc(S(=O)(=O)NC2CCCCC2)cc1)Nc1ccc(C(F)(F)F)cc1`: the “activity change, negative = inhibition” value was inactive: -25.4%.
Turning to `Cc1cc(N2CCCCC2)nc2ccc(NC(=O)/C=C/c3ccccc3OC(C)C)cc12`, the “activity change, negative = inhibition” value was inactive: -21.8%.
Same read-out and setting: to `CCOc1cccc(CC(=O)N2CCc3c([nH]c4ccccc34)C2c2ccc(F)cc2)c1OCC` (stereo not given) belongs inactive: -26.1%.
For `Cc1ccc(CNC(=O)CSCc2ccc(F)cc2)cc1`, the “activity change, negative = inhibition” value was inactive: -14.9%.
Same read-out and setting: for `O=S(=O)(c1ccccc1)n1nc(-c2ccccc2)nc1NCc1ccc(Cl)cc1` the value was inactive: -12.7%; for `CCCCNC(=O)CCn1c(=O)c2ccccc2n(Cc2ccccc2C#N)c1=O`, inactive: -7.66%; for `CCOc1ccc(CC(=O)Nc2c(C(=O)c3ccc(C)cc3)oc3ccccc23)cc1OCC`, inactive: -0.434%.
In the case of `CCC(=O)N1CCc2cc(Br)cc(S(=O)(=O)N3CCCC(C(=O)Nc4cccc(Cl)c4C)C3)c21` (stereo not given), the “activity change, negative = inhibition” value is inactive: -13.6%.
As for `Cc1ccc(C(=O)COC(=O)C(CC(C)C)NC(=O)C2CCC(C)CC2)cc1` (stereo not given), the “activity change, negative = inhibition” value is inactive: -10.6%.
Turning to `O=C(O)CCc1nc2ccccc2[nH]1`, the “activity change, negative = inhibition” value is inactive: 3.6%.
Consider `COc1cc(C2N=C(N)Nc3nc4ccccc4n32)ccc1OCCC(C)C` (stereo not given), for which the “activity change, negative = inhibition” value was inactive: -14.9%.
Regarding `CC(=O)c1cccc(NC(=O)C2CCCN(c3nnc(-n4cccc4)s3)C2)c1` (stereo not given), the “activity change, negative = inhibition” value is inactive: -18.3%.
On to `O=C(Cc1cccc([N+](=O)[O-])c1)NCc1nc2cccnc2n1Cc1ccc(F)cc1`, for which the “activity change, negative = inhibition” value was inactive: -19.6%.
The same measure, in the same setting: for `Cn1c(=O)cc(OCCCC(=O)Nc2ccc(F)cc2)c2ccccc21` the value was inactive: 29.9%.
For `CCOc1ccc(NS(=O)(=O)c2cc(Br)cc3c2N(C(=O)C2CC2)CC3)cc1`, the “activity change, negative = inhibition” value was inactive: -22.2%.
Regarding `CCCN(CCC)CCCNC(=O)C1CCCN(S(=O)(=O)c2cccc3nsnc23)C1` (stereo not given), the “activity change, negative = inhibition” value is inactive: -0.113%.
On the same count and under the same terms, for `Cc1ccccc1-c1nc(CS(=O)(=O)CC(=O)N2CCN(c3ccccc3)CC2)c(C)o1` the value was inactive: -26.3%; for `CCC1CCc2nc3sc(C(=O)Nc4ccc(F)cc4F)c(N)c3cc2C1` (stereo not given), inactive: 15.4%.

The record behind these values is PubChem BioAssay AID1508623 (National Center for Advancing Translational Sciences (NCATS), 2021).
